The values that follow come from PMC4336329 (PLoS ONE, 2015).

Hit rate of the full screen: of about 310,000 compounds, about 2,200 (0.71%) showed an effect of 50% or more. Effects have a minus sign here. The list shows a part of the results.

This assay deals with human ether-à-go-go-related gene (hERG) potassium channel (human, UniProt Q12809). Briefly: primary screen, population patch clamp on CHO cells stably expressing hERG.
Chain of human ether-à-go-go-related gene (hERG) potassium channel (Q12809 whole entry, looked up): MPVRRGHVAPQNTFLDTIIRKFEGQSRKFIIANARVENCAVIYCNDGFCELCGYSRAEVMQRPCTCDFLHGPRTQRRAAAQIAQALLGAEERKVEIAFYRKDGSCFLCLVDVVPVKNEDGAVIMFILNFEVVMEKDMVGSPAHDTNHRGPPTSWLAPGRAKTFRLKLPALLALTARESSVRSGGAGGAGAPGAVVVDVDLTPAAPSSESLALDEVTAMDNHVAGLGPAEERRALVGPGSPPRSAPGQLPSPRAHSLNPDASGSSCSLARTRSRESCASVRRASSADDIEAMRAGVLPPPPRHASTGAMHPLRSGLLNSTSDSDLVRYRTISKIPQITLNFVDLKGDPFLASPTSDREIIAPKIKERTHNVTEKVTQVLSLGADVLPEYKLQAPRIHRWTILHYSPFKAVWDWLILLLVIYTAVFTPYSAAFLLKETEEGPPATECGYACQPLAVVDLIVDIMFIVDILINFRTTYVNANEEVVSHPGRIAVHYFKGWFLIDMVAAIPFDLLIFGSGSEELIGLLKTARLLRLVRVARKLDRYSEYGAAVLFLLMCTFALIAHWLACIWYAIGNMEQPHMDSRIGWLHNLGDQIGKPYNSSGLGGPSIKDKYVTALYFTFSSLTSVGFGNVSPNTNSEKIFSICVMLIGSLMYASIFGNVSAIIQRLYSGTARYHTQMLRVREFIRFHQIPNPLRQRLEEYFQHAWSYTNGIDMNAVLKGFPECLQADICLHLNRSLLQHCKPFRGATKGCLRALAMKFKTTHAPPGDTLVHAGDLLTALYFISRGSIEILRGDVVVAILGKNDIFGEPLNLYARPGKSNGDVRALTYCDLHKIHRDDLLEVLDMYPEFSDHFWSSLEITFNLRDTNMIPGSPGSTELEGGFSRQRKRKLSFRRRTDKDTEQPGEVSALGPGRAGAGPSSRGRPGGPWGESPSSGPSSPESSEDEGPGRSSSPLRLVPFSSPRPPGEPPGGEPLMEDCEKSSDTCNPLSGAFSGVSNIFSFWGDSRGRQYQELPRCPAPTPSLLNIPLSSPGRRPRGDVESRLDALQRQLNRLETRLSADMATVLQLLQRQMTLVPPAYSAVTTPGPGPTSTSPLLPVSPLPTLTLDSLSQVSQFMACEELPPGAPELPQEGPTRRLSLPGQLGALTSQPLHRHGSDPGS
Regarding `CCN1CC(=O)Nc2cc(S(=O)(=O)N3CCOCC3)ccc21`, the “hERG current change (%, negative = inhibition) at 1uM” value was 7.14%. As for `CCOc1ccc(C(=O)CCC(=O)Nc2cc(C)ccn2)cc1`, the “hERG current change (%, negative = inhibition) at 1uM” value was found to be 13.7%. Turning to `Cc1[nH][nH]c(=O)c1N=Nc1ccccc1Cl`, the “hERG current change (%, negative = inhibition) at 1uM” value is on record as 17%. Take `Cc1ccc(N(CC(=O)NC2CCCC2)C(=O)CNC(=O)c2cccs2)cc1C`: the “hERG current change (%, negative = inhibition) at 1uM” value is 11.9%. In the case of `CCOC(=O)c1sc(NC(=O)Nc2ccccc2)cc1C`, the “hERG current change (%, negative = inhibition) at 1uM” value is reported as 4%.

In the case of `CC1(C)COC(/C=C/c2cccc([N+](=O)[O-])c2)=N1`, the “hERG current change (%, negative = inhibition) at 1uM” value is 6.63%. As for `Cl.O=C(c1ccco1)N1CCN(C(c2ccccc2)c2nnnn2C2CCCC2)CC1` (stereo not shown), the figure is 0.213%. Regarding `O=C(CSc1nc(=O)[nH]c2c1CCCC2)Nc1cc(C(F)(F)F)cc(C(F)(F)F)c1`, the “hERG current change (%, negative = inhibition) at 1uM” value is listed as 14.5%. For the molecule `O=C(Nc1nnc(-c2ccco2)o1)c1ccc(Cl)s1`, the “hERG current change (%, negative = inhibition) at 1uM” value stood at 7.99%. Take `CCN(CC)P(=O)(Nc1ccc([N+](=O)[O-])cc1)c1c(C)nn(CCC#N)c1NC(=O)c1ccc(Cl)cc1` (stereo not shown): the “hERG current change (%, negative = inhibition) at 1uM” value is reported as -26%. With `Cc1c(N(C)S(=O)(=O)c2cccc(C(=O)NCC3CCCO3)c2)c(=O)n(-c2ccccc2)n1C` (stereo not shown), the “hERG current change (%, negative = inhibition) at 1uM” value was -19.3%. As to `CN(C)C(CNC(=O)c1c(F)cccc1Cl)c1ccco1` (stereo not shown), the “hERG current change (%, negative = inhibition) at 1uM” value is recorded as 24.5%. Consider `COC(=O)c1ccc(/C=C/c2ccc3cccc(OC)c3n2)cc1`, for which the “hERG current change (%, negative = inhibition) at 1uM” value came to 9.08%. Take `CCOc1ccc(S(=O)(=O)NC2CCCC2)cc1`: the “hERG current change (%, negative = inhibition) at 1uM” value stood at 13.2%. For the molecule `Cn1cc(C=O)c2cc(F)ccc21`, the “hERG current change (%, negative = inhibition) at 1uM” value turned out to be 3.19%. The result for `O=[N+]([O-])c1ccccc1S(=O)(=O)Nc1cccc(-c2ccc(N3CCCC3)nn2)c1` reads 13.9%. With `Cc1ccc(NC(=O)c2ccc(NCc3ccco3)c([N+](=O)[O-])c2)cc1Cl`, the “hERG current change (%, negative = inhibition) at 1uM” value was 9.79%. As to `COc1cccc(OC)c1OCCCCCc1c(C)n[nH]c1C.Cl`, the “hERG current change (%, negative = inhibition) at 1uM” value stood at 10.6%. For `CC(C)CC1C(C#N)=C(N)SC(N)=C1C#N`, the “hERG current change (%, negative = inhibition) at 1uM” value turned out to be 10.8%. `Cc1nn(-c2ccccc2)c(NC(=O)c2ccccc2)c1Br`: the “hERG current change (%, negative = inhibition) at 1uM” value was 8.81%. For `ON=C1c2ccccc2-c2ccccc21`, the “hERG current change (%, negative = inhibition) at 1uM” value was found to be 10.2%. On to `O=C(Nc1c(C(=O)O)[nH]c2ccc(F)cc12)c1cccc(C(F)(F)F)c1`, for which the “hERG current change (%, negative = inhibition) at 1uM” value is recorded as -0.0799%. For the molecule `Cc1onc(-c2c(Cl)cccc2Cl)c1C(=O)N1CCN(Cc2ccccc2)CC1`, the “hERG current change (%, negative = inhibition) at 1uM” value amounted to 7.89%. On to `CC(=O)Nc1sc(/C(C#N)=C\c2cccc(Cl)c2)nc1-c1ccc(C)cc1`, for which the “hERG current change (%, negative = inhibition) at 1uM” value is 4.11%.

As for `COc1ccc(CCNc2nnc(Sc3nnnn3-c3ccccc3)s2)cc1OC`, the “hERG current change (%, negative = inhibition) at 1uM” value was -9.73%.
